Out of some 94,000 compounds screened, about 4,000 (4.3%) were called active. Inconclusive results, whose numbers are uncertain, are shown with a selection of clear calls. Calls follow the shape of the dose curve; as a rule, active = well fitted inhibition curve with a large enough effect; inconclusive = small, poorly fitted or top-dose-only effect; inactive = no such curve, though single readings can be large or run the other way. Potencies beside an inconclusive call are fits to weak or partial responses and may not hold up.
Assay: Cytotoxic Profiling in NIH 3T3 Cell Line of Diverse Libraries Using Quantitative High-Throughput Screening; also: nearly all actives have a fitted effect of over 55% in size
Details: NIH 3T3 viability, CellTiter-Glo ATP luminescence, 48-72 h; activity change, negative = cytotoxicity: at 96.7 µM (top of the series) unless noted; series mostly up to 96.7 µM
Summary of the method: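 First NIH 3T3 cells are plated at 400 cells/well; next compound is pinned in; then plates incubate 48 or 72 hr at 37 °C; finally CellTiter-Glo is added and luminescence read after 10 min.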
% is scaled to controls: 0 for no effect and ±100 for the full control effect; potency is read from the fitted curve at half-maximal effect; tags tell the direction and shape of the fitted curve.

Row | SMILES | activity change, negative = cytotoxicity | Potency | outcome
1 | Cc1nc(C)c(C(=O)N2CCCCCNC(=O)[C@@H]3CCC[C@@H]32)s1 | inactive: -25.1% | – | –
2 | CS(=O)(=O)N1CCC(OC2CCN(C(=O)c3cccc(Cl)c3)CC2)CC1 | – | inconclusive: 44.7 µM [inhibitor, partial curve, poor fit] | –
3 | Cc1ccccc1-c1cc(C(=O)NCCc2cnc[nH]2)c2c(c1)N(C)CCO2 | – | active: 100 µM | –
4 | Cc1cc(C[C@@H]2COC[C@@H]2NC(=O)c2c(-c3ccccc3)noc2C)on1 | – | – | inactive
5 | O=C(Cc1cc(F)c(F)c(F)c1)N1CCC(Cc2cccc(CO)c2)C1 (stereo not drawn) | – | inconclusive: 56.2 µM [inhibitor, partial curve, poor fit] | –
6 | CN(C)c1ccc(CN2CC[C@H](c3nc4cc(Cl)ccc4o3)C2)cc1 | – | active: 112 µM | –
7 | COc1ccc(F)cc1-c1ccc(CN2CCCCC2C(=O)NCc2ccc3c(c2)OCO3)cc1 (stereo not drawn) | – | inconclusive: 31.6 µM [inhibitor, full curve] | –
8 | CN1CCN([C@H]2[C@@H]3OC[C@@H](O3)[C@@H](NCc3ccc(-c4ccccc4)cc3)[C@@H]2O)CC1 | – | inconclusive: 100 µM [inhibitor, partial curve, poor fit] | –
9 | CCC(C)NC(=O)c1cc2n(n1)CC(c1ccc3c(c1)OCO3)OC2 (stereo not drawn) | – | inconclusive: 50.1 µM [inhibitor, partial curve, poor fit] | –
10 | CN1CCC2(C1)CN(CC1CC1)c1ccc(C(=O)NCCOc3ccccc3)cc12 (stereo not drawn) | – | active: 39.8 µM | –
11 | CCC(NC(=O)c1ccc2nc(-c3ccc(F)cc3)cn2c1)c1ncc(C)[nH]1 (stereo not drawn) | – | inconclusive: 50.1 µM [inhibitor, partial curve, poor fit] | –
12 | COc1ccc(NC(=O)Cn2c(N3CCc4ccccc4C3)nc(C)cc2=O)cc1Cl | – | active: 35.5 µM | –
13 | COCCNC(=O)c1ccc2c(c1)OCCN(c1cccc(OC(F)(F)F)c1)C2 | – | inconclusive: 8.91 µM [inhibitor, full curve, poor fit] | –
14 | O=C(NCCc1ccccc1)c1ccc2nnc(Cc3ccco3)n2c1 | – | inconclusive: 89.1 µM [inhibitor, partial curve, poor fit] | –
15 | O=C(c1cccs1)N1CCC(Oc2ncccc2C(=O)N2CCCCC2)C1 (stereo not drawn) | – | inconclusive: 70.8 µM [inhibitor, single point] | –
16 | O=C1CC2(CCN(Cc3ccc(F)cc3)CC2)Oc2ccccc2N1c1ccccc1 | – | inconclusive: 44.7 µM [inhibitor, partial curve, poor fit] | –
17 | COc1ccc(-c2nn(-c3ccccc3)cc2CN2CCCC(C)(O)C2)c(F)c1 (stereo not drawn) | – | inconclusive: 79.4 µM [inhibitor, partial curve, poor fit] | –
18 | O=C([C@H]1C[C@H](Oc2ccccc2)CN1S(=O)(=O)Cc1ccccc1F)N1CCOCC1 | – | inconclusive: 56.2 µM [inhibitor, partial curve, poor fit] | –
19 | O=C(c1ccccc1)N1CCC2(CC1)C(=O)NN=C2c1cccnc1 | inactive: -10.7% | – | –
20 | CC1(C)[C@H]2CC[C@@H](CNC(=O)c3ccc(Cl)cc3)[C@@H]1C2 | – | active: 39.8 µM | –
21 | Cc1cc(C(=O)NCc2c(C)ncc3c2CCNC3)ccc1F | inactive: -0.402% | – | –

Row | SMILES | activity change, negative = cytotoxicity | Potency | outcome
22 | Cc1nc(CCC(=O)NCc2ccc3[nH]c(-c4ccccc4F)c(C)c3c2)n[nH]1 | – | inconclusive: 31.6 µM [inhibitor, partial curve] | –
23 | Cc1ccc(C(=O)N2CCCN(C(=O)C3CC3)c3ccccc32)cc1F | – | inconclusive: 50.1 µM [inhibitor, partial curve, poor fit] | –
24 | O=C(Cc1ccccn1)N1CCc2nc(-c3ccccc3)nc(-c3ccc(Cl)cc3)c2C1 | – | inconclusive: 44.7 µM [inhibitor, partial curve, poor fit] | –
25 | CCOC(=O)[C@@H]1CN(C(=O)OCC)[C@H]2c3cccc(C)c3O[C@@H]12 | – | inconclusive: 44.7 µM [inhibitor, partial curve, poor fit] | –
26 | COCCCNC(=O)N1Cc2ccccc2OC2(CCN(C(C)C)CC2)C1 | inactive: -19.6% | – | –
27 | COc1ccc2[nH]c3c(c2c1)CCNC31CCN(Cc2ccc(C)o2)CC1 | – | inconclusive: 17.8 µM [inhibitor, full curve, poor fit] | –
28 | COCC1CN(C(=O)CN2CCCC2=O)CC12CCNCC2 (stereo not drawn) | inactive: -14.7% | – | –
29 | CCCCCC(=O)Nc1nc2c(s1)C[C@@H]1[C@](C)(CO)[C@H](O)CC[C@@]1(C)[C@@H]2CC(=O)NCc1ccccc1 | – | inconclusive: 50.1 µM [inhibitor, partial curve, poor fit] | –
30 | c1ccc2c(c1)CCCN2CCCNc1ncncn1 | – | inconclusive: 56.2 µM [inhibitor, partial curve, poor fit] | –
31 | COC(=O)c1cccc(NC(=O)N2CCC3(CCC(=O)N(Cc4ccccc4)CC3)CC2)c1 | – | inconclusive: 35.5 µM [inhibitor, partial curve, poor fit] | –
32 | Cc1nn2c(c1-c1ccccc1[S+](C)(=O)[O-])N(C(=O)c1ccccc1)CCC2 | – | inconclusive: 100 µM [inhibitor, partial curve, poor fit] | –
33 | COc1ccccc1CNC(=O)c1ccc2nnc(-c3ccc(Cl)cc3)n2c1 | – | inconclusive: 50.1 µM [inhibitor, partial curve, poor fit] | –
34 | COc1ccc(C2(C(=O)N3CCC4(CC3)CC(C(=O)N3CCOCC3)N(C)C4)CC2)cc1 (stereo not drawn) | inactive: -19.3% | – | –
35 | Cc1cccc2c1O[C@H]1[C@H](CO)CN([S+](=O)([O-])c3cccs3)[C@@H]21 | inactive: -29.6% | – | –
36 | COc1cccc(CN2CCCCCCNC(=O)CC2c2ccccc2)c1 (stereo not drawn) | – | inconclusive: 25.1 µM [inhibitor, full curve] | –
37 | Cn1c(C(=O)NC2CCN(Cc3ccccc3)CC2)cc2c1CCN(Cc1ccccc1)C2 | – | inconclusive: 56.2 µM [inhibitor, partial curve, poor fit] | –
38 | CNC(=O)c1cc(C)nc2onc(C3CCN(C(=O)c4ccccc4F)CC3)c12 | inactive: -21.6% | – | –
39 | O=C(Nc1ccc(F)cc1)c1nc2sccn2c1-c1cccc(C(F)(F)F)c1 | – | inconclusive: 44.7 µM [inhibitor, partial curve, poor fit] | –
40 | COc1ccc(NC(=O)N2CC(c3noc(-c4ccccc4)n3)C2)c(C)c1 | – | inconclusive: 50.1 µM [inhibitor, partial curve, poor fit] | –
41 | C[C@@H]1C(=O)O[C@H]2[C@H]1CC[C@@]1(C)Cc3sc(Nc4cccnc4)nc3[C@@H](C)[C@H]21 | inactive: -22.1% [at 174 µM] | – | –
42 | COc1ccc(C(=O)NC[C@@H]2C=C(C)[C@H](CC(=O)O)C[C@H]2C(C)C)cc1 | – | active: 35.5 µM | –

Row | SMILES | activity change, negative = cytotoxicity | Potency | outcome
43 | COc1ccc(CN2CCN(c3noc(C(C)C)n3)CC2CCO)cc1C (stereo not drawn) | – | inconclusive: 50.1 µM [inhibitor, partial curve, poor fit] | –
44 | O=C(CC1CCCC1)N1CCC(Cc2nc(-c3ccc(F)cc3)no2)CC1 | – | inconclusive: 28.2 µM [inhibitor, partial curve, poor fit] | –
45 | CC(=O)N1CCC(C(=O)N2CCCC2c2nc3ccncc3[nH]2)CC1 (stereo not drawn) | inactive: 4.56% | – | –
46 | Cc1nn(-c2ccccc2)c2c1C(C)N(C1CCN(C(=O)c3ccc(Cl)cc3)CC1)C2=O (stereo not drawn) | – | inconclusive: 70.8 µM [inhibitor, partial curve, poor fit] | –
47 | O=C(O)C1CN(C(=O)c2csc(-c3cccs3)n2)CCO1 (stereo not drawn) | inactive: 4.8% | – | –
48 | COCCNC(=O)[C@H]1C[C@H](Oc2ccccc2)CN1C(=O)CC(C)C | – | inconclusive: 50.1 µM [inhibitor, partial curve, poor fit] | –
49 | CN1CCCC12Cc1ccccc1CN(C(=O)C1CCCC1)C2 (stereo not drawn) | inactive: -16.6% | – | –
50 | Cc1cc(C)cc(C(=O)NCCn2ccn3nc(-c4ccc(F)cc4)cc3c2=O)c1 | – | inconclusive: 50.1 µM [inhibitor, partial curve, poor fit] | –
51 | Cc1ccc(CN2C[C@@H](NC(=O)c3cccnc3)C[C@H]2CO)s1 | inactive: -19.8% | – | –
52 | Cc1ncsc1CN1CCCCC1c1nc(CCOc2ccc(F)cc2)no1 (stereo not drawn) | – | inconclusive: 35.5 µM [inhibitor, partial curve, poor fit] | –
53 | CCn1nccc1C(=O)N1CCCn2ccnc2C1c1ccccc1 (stereo not drawn) | inactive: -18% | – | –
54 | CC(C)c1noc([C@@H]2Cc3nc[nH]c3CN2Cc2ccc(F)cc2)n1 | – | inconclusive: 50.1 µM [inhibitor, partial curve, poor fit] | –
55 | CC(C)N1C(=O)CO[C@H]2CCN(Cc3ccccc3)CC[C@@H]21 | – | inconclusive: 79.4 µM [inhibitor, partial curve] | –
56 | CCOC(=O)C1CCN(C(=O)c2cc3c(n2C)CCN(Cc2ccccc2)C3)CC1 | inactive: -24.1% | – | –
57 | Cc1cccc(CC(=O)N2CCC(Cc3nc(-c4cnccn4)no3)CC2)c1 | inactive: -11.5% | – | –
58 | COc1ccc(C2Cn3nnc(-c4nc(-c5ccccc5)no4)c3CO2)cc1 (stereo not drawn) | inactive: -8.75% | – | –
59 | COCCN1CCN(C[C@@H]2C=C(C)[C@H](Cc3nnc(-c4ccc(N(C)C)cc4)o3)C[C@H]2C(C)C)CC1 | – | inconclusive: 50.1 µM [inhibitor, partial curve, poor fit] | –
60 | CC(C)(O)CCc1cccc(C(=O)N2CC=C(c3ccc(F)cc3)CC2)c1 | – | inconclusive: 39.8 µM [inhibitor, partial curve] | –
61 | Cc1noc(C)c1-c1cc2c(cc(-c3ccccc3)n2C)c(-c2cccnc2)n1 | – | inconclusive: 22.4 µM [inhibitor, full curve, poor fit] | –
62 | Cc1ccc(-c2cn3cc(C(=O)NCC(F)(F)F)nc3s2)cc1 | – | inconclusive: 50.1 µM [inhibitor, partial curve, poor fit] | –
63 | COCCN1CCCCCC(O)c2cc(C(=O)NC3CCC3)ccc21 (stereo not drawn) | – | inconclusive: 39.8 µM [inhibitor, partial curve] | –

Source: PubChem BioAssay AID1345082 (National Center for Advancing Translational Sciences (NCATS), 2018)
